Results as given in the supplement of paper PMC4967469.
By IC50 is meant the dose at which the fit gives 50% viability; a fit beyond the top or the lowest dose is shown as a bound at that dose. For AUC the same curve is integrated over the 256-fold range of doses and scaled to a fraction; the more sensitive the line, the further below 1. For some assays here: A top dose marked as inferred comes from the curve model; the source does not state it.

Key:
Test in all cases: Viability of human cancer cell lines after 72 h of drug (GDSC screen)
[1] = compound: CC(=O)O[C@H]1C(=O)[C@@]2(C)[C@H]([C@H](OC(=O)c3ccccc3)[C@]3(O)C[C@H](OC(=O)[C@H](O)[C@@H](NC(=O)c4ccccc4)c4ccccc4)C(C)=C1C3(C)C)[C@]1(OC(C)=O)CO[C@@H]1C[C@@H]2O [Paclitaxel]; conditions: top dose 0.1024 µM
Procedure: (§1)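 Human cancer cell lines in 384-well plates, medium with 10% serum, drug for 72 h over a 256-fold dose range (nine 2-fold or five 4-fold steps up to the top dose). Adherent lines were fixed and stained with the nucleic acid dye Syto60, suspension lines read with resazurin; signal relative to control wells, capped at 0 and 100%. One two-parameter sigmoid per drug and line, fitted in a mixed model over all curves with the slope shared within a line.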

[2] = compound: Cc1cccc(Nc2nc(-c3ccncc3)cs2)c1 [STF-62247]; conditions: top dose 10.24 µM; top dose inferred
Procedure: as §1

[3] = compound: COCC(=O)NC/C=C/c1ccc2ncnc(Nc3ccc(Oc4ccc(C)nc4)c(C)c3)c2c1 [CP724714]; conditions: top dose 10.24 µM; top dose inferred
Procedure: as §1

[4] = compound: Cc1cnc(CNC(=O)c2c(=O)c3ccc(N4CCCN(C)CC4)nc3n3c2sc2ccccc23)cn1 [CX-5461]; conditions: top dose 10.24 µM; top dose inferred
Procedure: as §1

[5] = compound: COC1=CC(c2cc3ccccc3[nH]2)=N/C1=C\c1[nH]c(C)cc1C [Obatoclax mesylate]; conditions: top dose 16 µM
Procedure: as §1

[6] = compound: COc1ccc(C2=N[C@@H](c3ccc(Cl)cc3)[C@@H](c3ccc(Cl)cc3)N2C(=O)N2CCNC(=O)C2)c(OC(C)C)c1 [Nutlin-3a]
Procedure: as §1

Cell Line | AUC [1] | IC50 [1] [nM] | AUC [2] | IC50 [2] [nM] | AUC [3] | IC50 [3] [nM] | AUC [4] | IC50 [4] [nM] | AUC [5] | IC50 [5] [nM] | AUC [6] | IC50 [6] [nM]
L-363 (myeloma, suspension) | 0.56 | 9.09 | 0.911 | > 10200 | 0.98 | > 10200 | 0.908 | > 10200 | 0.243 | 206 |  | 
LOXIMVI (melanoma, semi-adherent) | 0.805 | 45 | 0.988 | > 10200 | 0.989 | > 10200 | 0.968 | > 10200 | 0.175 | 121 |  | 
LP-1 (myeloma, suspension) | 0.903 | 93.9 | 0.929 | > 10200 | 0.939 | > 10200 | 0.99 | > 10200 | 0.276 | 264 |  | 
LXF-289 (lung adenocarcinoma, adherent) | 0.352 | 2.51 | 0.968 | > 10200 | 0.978 | > 10200 | 0.907 | > 10200 | 0.31 | 298 |  | 
ML-2 (acute myeloid leukaemia, suspension) | 0.593 | 11.2 | 0.894 | 9900 | 0.982 | > 10200 | 0.883 | 8870 | 0.326 | 349 |  | 
MOLM-13 (acute myeloid leukaemia, suspension) | 0.497 | 6.29 | 0.849 | 6940 | 0.962 | > 10200 | 0.656 | 1680 | 0.214 | 155 |  | 
MOLP-8 (myeloma, suspension) | 0.647 | 16.1 | 0.987 | > 10200 | 0.978 | > 10200 | 0.569 | 983 | 0.152 | 89 |  | 
MOLT-13 (T-cell lymphoblastic leukaemia, suspension) | 0.619 | 13.1 | 0.947 | > 10200 | 0.967 | > 10200 | 0.885 | 8800 |  |  |  | 
MV-4-11 (leukaemia, suspension) | 0.459 | 5.07 | 0.958 | > 10200 | 0.958 | > 10200 | 0.442 | 457 | 0.21 | 174 |  | 
NCI-H226 (lung squamous cell carcinoma, adherent) | 0.95 | > 102 | 0.919 | > 10200 | 0.978 | > 10200 | 0.81 | 5750 | 0.142 | 70.4 |  | 
NH-12 (neuroblastoma, adherent) | 0.983 | > 102 | 0.979 | > 10200 | 0.985 | > 10200 | 0.35 | 233 | 0.422 | 594 |  | 
NOMO-1 (acute myeloid leukaemia, suspension) | 0.634 | 15.8 | 0.958 | > 10200 | 0.976 | > 10200 | 0.905 | > 10200 | 0.437 | 655 |  | 
OCI-AML2 (acute myeloid leukaemia, suspension) | 0.537 | 7.85 | 0.968 | > 10200 | 0.975 | > 10200 | 0.147 | 81.3 | 0.097 | 86.7 |  | 
OCI-AML3 (acute myeloid leukaemia, suspension) | 0.586 | 10.6 | 0.969 | > 10200 | 0.969 | > 10200 | 0.915 | > 10200 | 0.575 | 1550 |  | 
OPM-2 (myeloma, suspension) | 0.798 | 38.8 | 0.97 | > 10200 | 0.988 | > 10200 | 0.829 | 4840 | 0.409 | 591 |  | 
RL (B-cell lymphoma, suspension) | 0.99 | > 102 | 0.935 | > 10200 | 0.974 | > 10200 | 0.872 | 8420 | 0.738 | 4470 |  | 
RPMI-8226 (myeloma, suspension) | 0.482 | 5.75 | 0.984 | > 10200 | 0.987 | > 10200 | 0.731 | 2620 | 0.39 | 522 |  | 
SUP-B15 (lymphoblastic leukaemia, suspension) | 0.631 | 14.4 | 0.93 | > 10200 | 0.976 | > 10200 | 0.299 | 179 | 0.051 | < 62.5 |  | 
SW982 (soft tissue, adherent) | 0.545 | 8.54 | 0.985 | > 10200 | 0.985 | > 10200 | 0.798 | 5040 | 0.38 | 462 |  | 
TE-11 (oesophagus, adherent) | 0.255 | 1.37 | 0.986 | > 10200 | 0.982 | > 10200 | 0.984 | > 10200 | 0.321 | 334 |  | 
TGBC24TKB (biliary tract, adherent) | 0.553 | 8.82 | 0.99 | > 10200 | 0.959 | > 10200 | 0.99 | > 10200 | 0.674 | 2940 |  | 
WSU-DLCL2 (B-cell lymphoma, suspension) | 0.885 | 79.2 | 0.993 | > 10200 | 0.966 | > 10200 | 0.993 | > 10200 | 0.45 | 748 |  | 
ZR-75-30 (breast, adherent, top dose 8 µM) |  |  |  |  |  |  |  |  |  |  | 0.977 | > 8000
huH-1 (liver, adherent, top dose 8 µM) |  |  |  |  |  |  |  |  |  |  | 0.977 | > 8000
no-11 (glioma, adherent, top dose 8 µM) |  |  |  |  |  |  |  |  |  |  | 0.979 | > 8000
